Test results from the supplement of paper PMC12217912.
This is one part of the list. The full chains were built here from the parent and the listed change. Values near 0.05 are background.

B1: TEV protease; numbered along this chain (parent)
chain: MGESLFKGPRDYNPISSSICHLTNESDGHTTSLYGIGFGPFIITNKHLFRRNNGTLVVQSLHGVFKVKDTTTLQQHLVDGRDMIIIRMPKDFPPFPQKLKFREPQREERICLVTTNFQTKSMSSMVSDTSCTFPSGDGIFWKHWIQTKDGQCGSPLVSTRDGFIVGIHSASNFTNTNNYFTSVPKNFMELLTNQEAQQWVSGWRLNADSVLWGGHKVFMVKPEEPFQPVKEATQL

Variants of: B1
Experiment: raw area under fraction-flipped curve 0-4 h after induction (AUC4h, not background-subtracted), DNA-recorder readout of cleavage of the substrate (dimensionless); higher = more cleavage of the substrate by the protease variant
Conditions: temperature: 34 °C; time window: 0-4 h after rhamnose induction
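Note: Bxb1 expression induced with 0.2% (w/v) L-rhamnose at OD600 near 0.5, cultures sampled hourly, flipped fraction per protease–substrate barcode pair counted by paired-end Illumina sequencing.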

Row | Variant | area with substrate ENLYFES | area with substrate ENLYFGS | area with substrate ENLYFMS | area with substrate ENLYFPS | area with substrate ENLYFRS | area with substrate ENLYFSS | area with substrate ENLYFIS | area with substrate ENLYFKS | area with substrate ENLYFNS | area with substrate ENLYFVS
1 | G138I | 0.057 | 0.063 | 0.0576 | 0.0533 | 0.0385 | 0.064 | – | – | – | –
2 | Y179P | 0.058 | – | 0.046 | 0.0579 | – | 0.0558 | 0.0448 | 0.0551 | 0.069 | 0.0493
3 | V126D | 0.0394 | – | – | – | – | – | 0.0551 | – | – | 0.0703
4 | C131G | 0.0639 | – | 0.0636 | 0.0621 | – | 0.0686 | – | – | – | 0.077
5 | C131A | 0.0804 | – | 0.0787 | 0.0623 | – | 0.0709 | 0.069 | – | – | –
6 | V210A | – | – | – | 0.0469 | – | – | 0.0559 | 0.0493 | – | –
7 | L211G | 0.0672 | – | 0.0588 | 0.0672 | – | – | – | 0.0571 | – | –
8 | F173P | – | – | – | 0.0612 | – | – | 0.0552 | – | 0.0424 | –
9 | F92W | 0.0692 | – | – | 0.0552 | 0.0774 | – | – | 0.0524 | 0.0773 | –
10 | A170L | 0.0646 | – | – | – | 0.0511 | 0.061 | 0.0505 | 0.0368 | – | –
11 | G8H | – | 0.0696 | 0.0808 | – | 0.0754 | – | – | – | – | 0.0702
12 | S158Q | 0.0584 | – | 0.0331 | 0.0468 | – | – | 0.044 | – | 0.0475 | –
13 | G214T | 0.0673 | – | – | – | – | – | 0.0529 | – | – | –
14 | M188Q | 0.0664 | – | 0.0709 | 0.0567 | – | 0.0675 | 0.0557 | 0.0477 | – | –
15 | M188H | 0.0681 | – | 0.0673 | 0.0588 | 0.0656 | – | 0.0349 | 0.0795 | – | –
16 | F226P | 0.0723 | 0.0287 | – | 0.0537 | 0.0596 | 0.0646 | 0.0685 | 0.0593 | 0.108 | 0.0575
17 | E103N | – | – | 0.0598 | – | – | – | 0.105 | 0.0514 | 0.0658 | –
18 | V165H | 0.0457 | – | – | 0.0511 | 0.044 | – | 0.0533 | 0.0584 | – | 0.0397
19 | D79C | 0.0179 | – | – | – | 0.037 | – | 0.0593 | – | 0.0422 | –
20 | R51T | 0.0789 | – | – | 0.0612 | 0.0444 | – | 0.0681 | – | 0.0593 | –
21 | S121N | 0.0727 | 0.0619 | 0.0816 | 0.0494 | 0.0578 | – | 0.0523 | 0.054 | 0.0635 | –
22 | Q74L | 0.0645 | – | – | – | – | – | 0.042 | 0.064 | – | –

Row | Variant | area with substrate ENLYFES | area with substrate ENLYFGS | area with substrate ENLYFMS | area with substrate ENLYFPS | area with substrate ENLYFRS | area with substrate ENLYFSS | area with substrate ENLYFIS | area with substrate ENLYFKS | area with substrate ENLYFNS | area with substrate ENLYFVS
23 | V157K | 0.0547 | – | – | 0.0381 | – | – | 0.0553 | – | 0.0499 | –
24 | L99A | 0.0591 | 0.0501 | 0.0654 | 0.0534 | 0.0544 | 0.0615 | 0.0669 | – | 0.0581 | –
25 | G162E | 0.051 | – | 0.065 | 0.0658 | – | – | 0.0564 | – | 0.0624 | –
26 | F163C | – | – | – | 0.0539 | – | 0.0675 | – | 0.0401 | 0.0719 | –
27 | I110A | 0.0625 | – | – | – | – | – | 0.101 | – | – | –
28 | F180Y | 0.0687 | – | 0.0629 | 0.0028 | – | 0.0557 | 0.0578 | – | – | –
29 | F6C | 0.0472 | – | 0.0631 | 0.0683 | – | – | – | – | – | –
30 | L205Q | – | – | 0.0673 | – | 0.0532 | – | 0.0583 | – | – | –
31 | E107Q | 0.0674 | 0.0707 | 0.0673 | 0.0645 | 0.0521 | 0.056 | 0.0383 | 0.0745 | – | 0.0599
32 | E107T | 0.0379 | – | – | 0.0603 | 0.0682 | – | 0.0415 | – | 0.0607 | –
33 | G54P | 0.0845 | – | – | 0.0763 | – | – | – | – | – | 0.0546
34 | I85E | 0.0468 | 0.037 | 0.0451 | – | 0.0438 | 0.0471 | 0.0483 | – | – | 0.0578
35 | S169V | 0.0557 | – | – | 0.0493 | – | 0.0563 | 0.059 | – | 0.0516 | –
36 | V67E | – | – | – | 0.0454 | – | – | – | – | – | –
37 | N116G | 0.0865 | – | – | 0.0658 | 0.0563 | 0.0587 | 0.0594 | 0.0706 | 0.0642 | 0.0546
38 | T72I | 0.0614 | – | 0.0709 | – | 0.0908 | – | – | – | 0.0637 | –
39 | T72M | 0.0645 | – | – | 0.0545 | 0.0523 | – | 0.0544 | – | – | –
40 | S201F | – | – | 0.0449 | – | 0.0672 | – | – | 0.0665 | – | –
41 | L235D | 0.08 | – | 0.0775 | – | 0.0728 | 0.0613 | – | 0.0931 | 0.0785 | –
42 | K90E | – | – | 0.075 | – | – | 0.0475 | – | 0.0626 | 0.0733 | –
43 | I36G | 0.0424 | – | – | 0.0466 | – | – | 0.0365 | 0.0409 | – | –
44 | T119N | 0.0638 | 0.0457 | – | 0.0554 | – | – | – | 0.0734 | – | –

Same assay, conditions: temperature: 34 °C; time window: 0-4 h after rhamnose induction

Row | Variant | area with substrate ENLYFWS | area with substrate ENLYFYS | area with substrate ENLYFFS | area with substrate ENLYFHS | area with substrate ENLYFTS | area with substrate ENLYFLS | area with substrate ENLYFDS
45 | Y179P | 0.0609 | 0.0625 | – | – | – | – | –
46 | V126D | – | – | 0.0558 | – | – | – | –
47 | C131G | – | – | 0.0756 | – | – | – | –
48 | V210A | – | – | 0.0817 | – | – | – | –
49 | L211G | – | – | – | 0.0615 | 0.081 | – | –
50 | F173P | 0.0603 | 0.077 | 0.0561 | 0.0622 | 0.0534 | – | –
51 | F173K | – | – | 0.073 | – | 0.0542 | – | –
52 | F92W | – | – | 0.0829 | – | – | – | –
53 | A170L | – | – | 0.0628 | – | 0.06 | – | –
54 | G8H | – | 0.0723 | 0.0558 | 0.104 | – | 0.0541 | –
55 | S158Q | 0.0625 | 0.0492 | 0.0655 | 0.0667 | 0.0417 | – | –
56 | G214T | – | – | – | – | – | 0.0709 | –
57 | M188Q | – | – | 0.0565 | – | 0.0574 | – | –
58 | M188H | – | – | 0.069 | 0.0603 | 0.062 | – | –
59 | F226P | – | – | – | 0.0572 | – | – | –
60 | E103N | – | – | 0.0709 | – | 0.0509 | – | –
61 | V165H | – | 0.0567 | 0.0596 | – | – | 0.0421 | –
62 | D79C | 0.0521 | 0.055 | 0.0539 | 0.0602 | 0.0288 | – | –
63 | R51T | – | – | 0.0687 | 0.0376 | 0.0501 | – | –
64 | S121N | – | 0.0629 | 0.0607 | 0.0523 | 0.0505 | 0.0564 | –
65 | Q74L | – | – | – | 0.0547 | – | – | –
66 | V157K | 0.041 | – | 0.0535 | – | – | – | –

Row | Variant | area with substrate ENLYFWS | area with substrate ENLYFYS | area with substrate ENLYFFS | area with substrate ENLYFHS | area with substrate ENLYFTS | area with substrate ENLYFLS | area with substrate ENLYFDS
67 | L99A | 0.0607 | – | 0.0689 | – | 0.0593 | – | –
68 | G162E | 0.0305 | – | 0.0673 | – | 0.0557 | – | –
69 | F163C | – | – | 0.082 | – | – | 0.0442 | –
70 | I110A | 0.0457 | – | – | – | – | – | –
71 | F180Y | 0.0519 | 0.0536 | 0.078 | 0.0636 | – | – | –
72 | F6C | – | – | 0.0614 | – | – | – | –
73 | L205Q | 0.0511 | 0.0617 | 0.0792 | – | – | – | –
74 | E107Q | 0.0573 | – | 0.0699 | 0.059 | 0.0602 | – | –
75 | E107T | – | – | – | – | 0.0604 | – | –
76 | G54P | 0.0437 | – | 0.0624 | – | – | – | –
77 | I85E | 0.0543 | – | 0.0624 | – | – | – | –
78 | S169V | – | 0.0511 | 0.0165 | 0.0585 | 0.0789 | 0.0577 | –
79 | V67E | – | – | 0.047 | – | 0.0582 | – | –
80 | N116G | 0.0666 | 0.0642 | 0.0702 | – | 0.052 | – | –
81 | T72I | – | – | 0.0622 | – | 0.0552 | 0.122 | –
82 | T72M | – | – | – | 0.0769 | – | – | –
83 | S201F | – | – | 0.0663 | – | – | – | –
84 | L235D | 0.0632 | 0.062 | – | 0.0525 | – | – | –
85 | K90E | 0.0557 | – | 0.0682 | – | – | 0.0574 | –
86 | I36G | 0.0368 | – | – | 0.0406 | – | – | –
87 | T119N | 0.044 | 0.0424 | 0.079 | 0.057 | – | 0.0659 | 0.0535
